Assay results from PubChem BioAssay AID1963576 (National Center for Advancing Translational Sciences (NCATS), 2024).
The campaign covered roughly 46,000 compounds. About 60 (0.1%) were called active. Another 3% or so got no clear call; they are omitted. The call rests on the fitted dose curve; in most records, active means well fitted inhibition curve with a large enough effect; inconclusive means small, poorly fitted or top-dose-only effect; inactive means no such curve, though single readings can be large or run the other way. The list shows a part of the results.

Test: Primary qHTS assay for Inhibitors of ovarian cancer metastasis using an organotypic tumor microenvironment (TME) model. Further: nearly all actives have a fitted effect of over 65% in size.
Settings: SKOV3ip1-GFP adhesion/invasion on 3D omental model, fluorescence; series mostly up to 45.8 µM; activity change, negative = inhibition: at the top concentration
Text: PI: Ernst Lengyel MD., Ph.D. Department of Obstetrics and Gynecology, Section of Gynecologic Oncology University of Chicago Medicine, Chicago, Illinois. The tumor microenvironment (TME) is a key determinant of metastatic efficiency. We performed a quantitative high-throughput screen (qHTS) of diverse medicinal chemistry tractable scaffolds (44,420 compounds) and pharmacologically active small molecules (386 compounds) using a layered organotypic, robust assay representing the ovarian cancer metastatic TME. This 3D model contains primary human mesothelial cells, fibroblasts, and extracellular matrix, to which fluorescently labeled ovarian cancer cells are added. Initially, 100 compounds inhibiting ovarian cancer adhesion/invasion to the 3D model in a dose-dependent manner were identified. Of those, eight compounds were confirmed active in five high-grade serous ovarian cancer cell lines and were further validated in secondary in vitro and in vivo biological assays. […] Specifically, NCGC00117362 and PP-121 inhibited ovarian cancer adhesion, invasion, and proliferation, whereas milciclib inhibited ovarian cancer invasion and proliferation. […] To evaluate the clinical potential of NCGC00117362, structure - activity relationship studies were performed. […] The three compounds identified have promise as therapeutics for prevention and treatment of ovarian cancer metastasis.
PROTOCOL TABLE (as described by Inglese J, Shamu CE and Guy RK. 2007) SEQUENCE No. (e.g., 1, 2, 3, etc.); […] (e.g., Cells, Incubation, Reagent, etc.); VALUE; DESCRIPTION. 1; Cells; 4 uL; primary human omental fibroblast, black, clear bottom, low base, 1536-well Aurora assay plate. 2; Incubation; 48 hr; 37C. 3; Cells; 3 uL; 1,200 SKOV3ip1-GFP cells. 4; Compounds; 23nL; acoustic dispenser. 5; Incubation; 2 hr; room temperature. 6; Incubation; 16 hr; 37C. 7; Wash; 5 uL; 1x PBS. 8; Fixing; 5 uL; 4% paraformaldehyde (PFA). 9; Incubation; 15 min; room temperature 10; Wash, 5 uL; 1x PBS. 11; Detection; Fluorescence, excitation filter 488 nm, emission filter 509 nm. NOTES (numbers refer to Sequence numbers above) 1. For the 1,536-well format, 40 primary human omental fibroblasts and 400 mesothelial cells were seeded with 0.02 µg fibronectin and 0.02 µg collagen type I in 4 µL of growth media (2.3 mm2; Supplementary Fig. S1A). 2. Assay plates were incubated for 48 hours at 37 C. 3. After incubation, 1,200 SKOV3ip1-GFP were seeded in 3 µL of serum-free media (growth media minus FBS) on top of primary human omental cells. 4. Compounds or controls were added to each well immediately after the addition of the cancer cells. Compounds were screened in four doses (0.36-46 µmol/L), and the plates contained the positive control (Tomatine) in eight doses (0.035-75 µmol/L) and DMSO (equal volume controls) 5 - 6. The plates were incubated at room temperature for 2 hours and then at 37 degrees C for 16 hours. 7 - 10. Following incubation, the media were aspirated and each well washed with PBS (5 µL) and then fixed with 4% paraformaldehyde (PFA; 5 µL). After 15 minutes, the PFA solution was aspirated, PBS (5 µL) was added. 11. The number of GFP-labeled cells analyzed using a fluorescent cytometer TTP LabTech Acumen eX3 using 488 nm excitation filter and 509 nm emission filter. Data was normalized to the DMSO treated for negative and Tomatine treated wells for positive control. REFERENCES: Inglese J, Shamu CE and Guy RK, Reporting data from high throughput screening of small molecule libraries, Nature Chemical Biology, 2007, 3(8): 438-441. doi.org/10.1038/nchembio0807-438. Yasgar A, Shinn P, Jadhav A, Auld DS, Michael S, Zheng W, Austin CP, Inglese J and Simeonov A, Compound Management for Quantitative High-Throughput Screening. J. Assoc. Lab. Auto., 2008, 13: 79-89. doi: 10.1016/j.jala.2007.12.004.

Row | SMILES | outcome | activity change, negative = inhibition
1 | CCOc1ccc(C2CC(=O)n3nc(-c4ccc(C)cc4)nc3S2)cc1OC (configuration not stated) | inactive | –
2 | O=C(CN1CCN(S(=O)(=O)c2cc(Cl)ccc2Cl)CC1)Nc1cccc(F)c1 | inactive | –
3 | Cn1cc(S(=O)(=O)c2ccc(Cl)cc2)c(=O)c2cc(F)c(N3CCCCCC3)cc21 | – | inactive: -6.77%
4 | O=C(Nc1ccc(NC(=O)c2cc3ccccc3o2)cc1)c1ccccc1 | inactive | –
5 | O=C(Nc1ccc(Cl)cc1Cl)c1cc(S(=O)(=O)N2CCN(c3ccccc3F)CC2)ccc1F | inactive | –
6 | Cc1ccc(NC(=O)CCSCCc2ccccn2)cc1 | – | inactive: 0.286%
7 | Cc1ccc(-c2cc3ncc(C(=O)c4cc([N+](=O)[O-])ccc4O)cn3n2)cc1 | inactive | –
8 | CCc1ccc(-n2c(C)nnc2SCc2nc(-c3ccc(OC)cc3)no2)cc1 | inactive | –
9 | CN(Cc1ccccc1)c1nc(-c2ccc(F)cc2)cc(C(F)(F)F)n1 | inactive | –
10 | O=C(COc1ccccc1F)Nc1ccc(C(=O)OCc2cc(=O)n3nc(C4CC4)sc3n2)cc1 | – | inactive: -9.65%
11 | CCCCN(C)CCNC(=O)c1cc(-c2cccnc2)nc2ccc(S(=O)(=O)N3CCC(C)CC3)cc12 | inactive | –
12 | Cc1ccn2c(c1)nc(=O)c1cc(S(=O)(=O)N3CCC(C)CC3)c(Cl)cc12 | – | inactive: -7.13%
13 | O=C(Nc1ccc(Cl)cc1)C1CCN(c2nc3ccccc3n3cccc23)CC1 | – | inactive: -9.81%
14 | CC(C)(C)OC(=O)N1CCC(c2c(C(=O)NCc3ccc4c(c3)OCO4)cnn2-c2ccc(F)cc2F)CC1 | – | inactive: -13.1%
15 | CCC(Oc1ccccc1F)C(=O)Nc1c(C(=O)c2ccccc2)oc2ccccc12 (configuration not stated) | – | inactive: -7.4%
16 | CCC(C(=O)Nc1cccc(-c2cn3cccnc3n2)c1)c1ccccc1 (configuration not stated) | – | inactive: -5.07%
17 | COc1ccc(Br)cc1CNC(=O)CCCn1c(=O)c2cccn2c2ccccc21 | inactive | –
18 | Cc1ccc(-c2noc(CN(C3CCCCC3)S(=O)(=O)c3ccc(C)cc3)n2)cc1 | – | inactive: -7.95%
19 | COc1cc(NC(=O)c2noc3c2CCc2ccccc2-3)cc(OC)c1OC | inactive | –
20 | Cc1nn(-c2ccc3nncn3n2)c(C)c1CCC(=O)Nc1ccc(OC(F)(F)F)cc1 | – | inactive: 19.2%
21 | COc1cc(C(=O)NCC(c2cccnc2)N2CCN(c3ccc(F)cc3)CC2)cc(OC)c1OC (configuration not stated) | – | inactive: 1.45%
22 | Cc1cccc(-c2nc3c(C#N)c[nH]n3c2NC2CCCCC2)c1 | – | inactive: -0.994%
23 | COc1ccc(CCNC(=O)NCc2noc3ccccc23)c(OC)c1 | – | inactive: -3.86%
24 | CC1=C(C(=O)Nc2ccc(C)cc2C)C(c2ccccc2C)n2ncnc2N1 (configuration not stated) | – | inactive: -9.92%

Row | SMILES | outcome | activity change, negative = inhibition
25 | CN(C)c1ccc(C(CNS(=O)(=O)c2ccc(Cl)cc2)N2CCCC2)cc1 (configuration not stated) | – | inactive: -1.88%
26 | CC(C)NCC(O)c1ccc(NS(C)(=O)=O)cc1 (configuration not stated) | – | inactive: -13.4%
27 | COc1cccc(-c2nnc3n(Cc4ccc(F)cc4)c(=O)c4ccccc4n23)c1 | – | inactive: 11.1%
28 | COc1ccccc1CNC(=O)C1CCN(Cc2nc(-c3ccc(OC)c(OC)c3)oc2C)CC1 | – | inactive: 4.08%
29 | Cc1ccccc1CNC(=O)c1ccc(-n2c(C)cc3c2CCCC3)cc1 | – | inactive: -26.9%
30 | CO[C@H]1C=CC=C(C)C(=O)NC2=CC(=O)C(NCCN(C)C)=C(C[C@@H](C)C[C@H](OC)[C@@H](O)[C@@H](C)C=C(C)[C@@H]1OC(N)=O)C2=O | – | inactive: -6.53%
31 | Cc1ccc(OCCn2c(-c3ccc(Cl)cc3)nc3ccccc3c2=O)c(C)c1 | – | inactive: -15.7%
32 | COCCNC(=O)c1ccc(Cn2c(SCC(=O)NC(C)C)nc3ccccc3c2=O)cc1 | – | inactive: -6.81%
33 | CCCN(C(=O)c1cc2c(Cl)nc3ccccc3c2s1)c1cccc(C)c1 | – | inactive: -9.35%
34 | CCCN(CCC)C(=O)Cn1c(=O)n(Cc2ccc(C(=O)NCCc3ccc(OC)c(OC)c3)cc2)c(=O)c2ccccc21 | inactive | –
35 | CCOc1ccccc1-c1nnc(SCc2ccc(Cl)cc2)o1 | – | inactive: 12.5%
36 | COc1ccc(OC)c(NC(=O)c2csnn2)c1 | – | inactive: -1.96%
37 | CC1=C(C(=O)Nc2ccc(C)cc2C)C(c2sccc2C)n2ncnc2N1 (configuration not stated) | – | inactive: 6.09%
38 | COc1ccc(-n2c(SCC(=O)N3CCC(C)CC3)nc3c([nH]c4ccccc43)c2=O)cc1 | – | inactive: 2.51%
39 | COc1ccc(-c2cc3nc(C4CCN(C(=O)OC(C)(C)C)CC4)c(C(=O)Nc4cc(Cl)cc(Cl)c4)cn3n2)cc1 | – | inactive: -14.8%
40 | COc1ccc(CNC(=O)c2ccc3c(c2)N(Cc2ccccc2)C(=O)c2ccccc2S3(=O)=O)cc1 | – | inactive: -31.2%
41 | CCOc1ccccc1N(C)C(=O)c1nn(-c2ccc(C)cc2)c(=O)c2c1c1ccccc1n2C | – | inactive: -0.373%
42 | Cc1ccc2occ(CC(=O)Nc3nnc(C(C)C)s3)c2c1 | – | inactive: 1.12%
43 | O=C(Nc1nnc(S(=O)(=O)N2CCCc3ccccc32)s1)c1ccccc1Br | – | inactive: -2.52%
44 | CCOc1cccc(C2c3c(oc4ccccc4c3=O)C(=O)N2c2nc(C)c(C(=O)OC)s2)c1 (configuration not stated) | – | inactive: 3.99%
45 | COc1ccc2cccc(CCNC(C)=O)c2c1 | – | inactive: 6.84%
46 | Cc1ccc(NC(=O)Cn2c(CCC(=O)O)ccc2-c2cccs2)cc1 | – | inactive: 8.52%
47 | COc1cccc(N2CCN(c3nc4ccc(C(=O)c5ccccc5)cc4n4c(C)nnc34)CC2)c1 | – | inactive: -3.89%
